# Measured values reported in paper PMC4336329 (PLoS ONE, 2015).
# The campaign covered roughly 310,000 compounds. About 2,200 (0.71%) showed an effect of 50% or more. Effects have a minus sign here. The list shows a part of the results.
# Target: human ether-à-go-go-related gene (hERG) potassium channel (human, UniProt Q12809)
# Assay: primary screen, population patch clamp on CHO cells stably expressing hERG
# Chain of human ether-à-go-go-related gene (hERG) potassium channel (Q12809 whole entry, looked up): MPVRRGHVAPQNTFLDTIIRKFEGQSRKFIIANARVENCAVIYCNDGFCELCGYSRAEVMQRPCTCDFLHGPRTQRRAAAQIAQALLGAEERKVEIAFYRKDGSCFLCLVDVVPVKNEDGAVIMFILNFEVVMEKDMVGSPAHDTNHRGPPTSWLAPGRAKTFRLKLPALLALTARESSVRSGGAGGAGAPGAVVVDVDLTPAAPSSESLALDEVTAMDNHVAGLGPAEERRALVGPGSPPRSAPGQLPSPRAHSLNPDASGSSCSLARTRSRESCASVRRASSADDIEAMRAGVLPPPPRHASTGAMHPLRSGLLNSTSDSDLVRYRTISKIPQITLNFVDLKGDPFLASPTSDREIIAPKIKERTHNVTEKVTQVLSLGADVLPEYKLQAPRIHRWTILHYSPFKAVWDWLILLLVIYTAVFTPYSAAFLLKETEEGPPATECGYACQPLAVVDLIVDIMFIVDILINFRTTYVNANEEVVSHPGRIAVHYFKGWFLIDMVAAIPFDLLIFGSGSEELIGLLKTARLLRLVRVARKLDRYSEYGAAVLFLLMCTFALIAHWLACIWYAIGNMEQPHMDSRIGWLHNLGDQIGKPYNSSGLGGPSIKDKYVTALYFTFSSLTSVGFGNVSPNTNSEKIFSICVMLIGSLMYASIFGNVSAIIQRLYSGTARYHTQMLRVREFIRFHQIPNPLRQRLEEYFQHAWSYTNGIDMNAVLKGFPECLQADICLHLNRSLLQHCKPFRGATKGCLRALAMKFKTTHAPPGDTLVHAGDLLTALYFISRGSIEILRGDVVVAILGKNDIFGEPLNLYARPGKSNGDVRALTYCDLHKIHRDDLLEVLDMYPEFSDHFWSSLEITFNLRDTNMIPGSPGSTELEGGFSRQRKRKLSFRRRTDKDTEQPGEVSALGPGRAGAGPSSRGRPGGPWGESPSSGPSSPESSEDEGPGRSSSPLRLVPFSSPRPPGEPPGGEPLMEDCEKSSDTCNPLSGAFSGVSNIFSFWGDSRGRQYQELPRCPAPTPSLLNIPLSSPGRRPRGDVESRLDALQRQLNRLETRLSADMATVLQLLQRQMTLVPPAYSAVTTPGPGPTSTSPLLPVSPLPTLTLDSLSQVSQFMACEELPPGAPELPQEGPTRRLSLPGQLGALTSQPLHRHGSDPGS
row,Structure (SMILES),"hERG current change (%, negative = inhibition) at 1uM"
1,CCCCC(=O)NC(Nc1cc(C)ccn1)(C(=O)OCC)C(F)(F)F (stereo not drawn),6.65%
2,COc1ccc(-c2csc(Nc3ncccc3C)n2)cc1OC,-1.7%
3,COc1ccc(-c2nn(C)c(=O)c3ccccc23)cc1CNC(=O)NC1CCCCC1,3.84%
4,COc1ccccc1N1CCN(S(=O)(=O)c2ccc(NC(C)=O)cc2)CC1,7.93%
5,CC(=O)Nc1ccc(S(=O)(=O)N(C)c2ccc(O)cc2)cc1,2.34%
6,CCOc1ccc(N(C(=O)CNC(=O)c2cccs2)C(C(=O)NCC2CCCO2)c2ccc(OC)c(OC)c2)cc1 (stereo not drawn),1.63%
7,CC1CN(C(=O)COC(=O)c2ccc(Cl)nc2)CC(C)O1 (stereo not drawn),11.8%
8,CCCCc1ccc(NC(=S)NCc2ccccc2OC)cc1,14.1%
9,CCOC(=O)c1c(C)oc2ccc(OC(=O)N3CCOCC3)cc12,-3.52%
10,COc1cc(-c2nnc(NC(=O)c3ccco3)o2)cc(OC)c1OC,3.76%
11,CC(=O)c1ccccc1OCCCCN1CCCCC1.O=C(O)C(=O)O,-29.5%
12,CCCCN1CC(=O)N2[C@H]3c4cc(Br)ccc4OC[C@@H]3[C@H](C(=O)OCC)[C@]2(C)C1=O,15.1%
13,CCc1nnc2cccc(Cl)n12,1.31%
14,CCNC(=O)CC(=O)Nc1ccccc1C(=O)O,8.16%
15,COc1cc(S(=O)(=O)NCC2OCCc3ccccc32)ccc1-n1cnnn1 (stereo not drawn),-7.28%
16,CCOCc1nnc(NC(C)=O)s1,12.2%
17,Cc1nc(C(=O)NC2CCCCC2)sc1C1(C)CC(c2cccc([N+](=O)[O-])c2)=NO1 (stereo not drawn),5.74%
18,CCOC(=O)C1CCN(C(=O)c2c(-c3c(F)cccc3Cl)noc2C)CC1,-1.92%
19,Cc1ccc(CSCCNC(=O)c2ccc(Cl)c(S(=O)(=O)N3CCOCC3)c2)cc1,-1.75%
20,COc1ccc(C(=O)COC(=O)/C=C/c2ccccc2)c(OC)c1,16.3%
21,COC(=O)c1ccccc1C(=O)c1cccc2ccccc12,10.3%
22,Cc1ccc(S(=O)(=O)CCC(=O)NCCN2C(=O)S/C(=C\c3ccccc3)C2=O)cc1,7.65%
23,COc1cc(Cl)c(C)cc1NC(=O)c1ccccc1NC(=O)CN1CCOCC1,-18.6%

row,Structure (SMILES),"hERG current change (%, negative = inhibition) at 1uM"
1,Nc1ccc(S(=O)(=O)NCc2ccccn2)cc1,1.67%
2,CC(=O)Nc1ccc(NC2=C/C(=N/S(=O)(=O)c3cccs3)c3ccccc3C2=O)cc1,12.6%
3,CCOc1ccc(C(C)NC(=O)CCC(=O)O)cc1 (stereo not drawn),2.27%
4,Cc1cc2n(n1)C(c1ccc(N(C)C)cc1)Nc1ccccc1-2 (stereo not drawn),0.64%
5,COc1cccc(C(=O)Nc2ccc(NC(=O)C(C)(C)C)cn2)c1,7.91%
6,O=C(O)c1ccc(Cn2cc(Cl)cn2)cc1,15.9%
7,CC1(C)C=C(c2ccc(O)cc2)CC(C)(C)N1,12%
8,CC(=O)c1cc(NC(=O)c2cccc(C(F)(F)F)c2)c(=O)oc1C,8.48%
9,N#CC(C#N)=Cc1ccc(OCC(=O)N2CCOCC2)cc1,2.49%
10,Cc1ccc(C(=O)NCCCNC(=O)Cc2ccccc2)cn1,16.2%
11,Cc1ccc(NC(=O)c2ccc(F)cc2F)cc1,11.1%
12,O=C(COC(=O)c1cccnc1Cl)NCCC1=CCCCC1,10.3%
13,O=c1c2ccccc2nnn1CSc1ccc2c(c1)OCCO2,1.76%
14,CC(=O)Oc1c(I)cc(I)cc1C(=O)Nc1ccc(Cl)cc1,16.3%
15,CCOc1ccccc1OCCOCCOc1ccccc1[N+](=O)[O-],5.55%
16,O=Cc1ccc(-n2cncn2)cc1,16.1%
17,O=C(O)c1ccccc1-c1ccc(/C=c2\sc3nc4cc(Br)cnc4n3c2=O)o1,17.6%
18,CC(=C/C(=O)O)/C=C/c1cccs1,8.88%
19,Cc1cc(C)c(C(=O)COC(=O)Cn2c(C)csc2=O)cc1C,5.67%
20,CCOC(=O)c1c(-c2ccc(OC)cc2)csc1NC(=O)CSc1ncnc2sccc12,-9.17%
21,Fc1ccccc1CCNc1c2c(nc3ncnn13)CCCC2,8.12%
22,Cn1cccc1Cc1nnc(SCC(=O)Nc2ccccc2)n1-c1ccc(F)cc1,-13.6%
